The other results are listed elsewhere or left out. Sequences were assembled here from the parent chain. Values near 0.05 are background.
B1: TEV protease; numbered along this chain (parent)
chain: MGESLFKGPRDYNPISSSICHLTNESDGHTTSLYGIGFGPFIITNKHLFRRNNGTLVVQSLHGVFKVKDTTTLQQHLVDGRDMIIIRMPKDFPPFPQKLKFREPQREERICLVTTNFQTKSMSSMVSDTSCTFPSGDGIFWKHWIQTKDGQCGSPLVSTRDGFIVGIHSASNFTNTNNYFTSVPKNFMELLTNQEAQQWVSGWRLNADSVLWGGHKVFMVKPEEPFQPVKEATQL

Variants of: B1
Experiment: raw area under fraction-flipped curve 0-4 h after induction (AUC4h, not background-subtracted), DNA-recorder readout of cleavage of the substrate (dimensionless); higher = more cleavage of the substrate by the protease variant
Conditions: temperature: 34 °C; time window: 0-4 h after rhamnose induction
Experimental: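 In vivo DNA recorder in E. coli TOP10(DE3) ΔrhaA at 34 °C. Each TEVp single-site mutant (parent TEVp 0) is paired with a single-site variant of the 7-mer TEVs (canonical ENLYFQ|S). The substrate sits between flexible linkers in a Bxb1-sfGFP-TEVs-SsrA fusion, so cleavage stabilises Bxb1 and speeds flipping of a recombination array, read by NGS. The value is the raw area under the fraction-flipped curve over 0-4 h after rhamnose induction (AUC4h), with ≥20 reads per time point. It is not background-subtracted; inactive controls average about 0.047.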
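Also: Bxb1 expression induced with 0.2% (w/v) L-rhamnose at OD600 near 0.5, cultures sampled hourly, flipped fraction per protease–substrate barcode pair counted by paired-end Illumina sequencing.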

Row | Variant | area with substrate DNLYFQS | area with substrate GNLYFQS | area with substrate HNLYFQS | area with substrate KNLYFQS | area with substrate LNLYFQS | area with substrate PNLYFQS | area with substrate SNLYFQS | area with substrate TNLYFQS | area with substrate VNLYFQS | area with substrate YNLYFQS | area with substrate FNLYFQS | area with substrate INLYFQS | area with substrate MNLYFQS | area with substrate NNLYFQS | area with substrate RNLYFQS | area with substrate WNLYFQS | area with substrate QNLYFQS
1 | L211F | 0.0618 | 0.0892 | 0.0682 | 0.0499 | 0.0715 | 0.067 | 0.0689 | 0.0553 | 0.0617 | 0.0502 | – | – | – | – | – | – | –
2 | A196T | 0.12 | – | 0.0694 | – | 0.0662 | 0.04 | 0.0739 | 0.07 | – | – | 0.0609 | 0.0585 | 0.0693 | 0.0638 | 0.0641 | 0.0599 | –
3 | A196Y | 0.0612 | – | – | 0.0659 | – | 0.0877 | – | 0.0632 | – | 0.0549 | – | – | 0.0829 | – | 0.0977 | – | 0.0658
4 | I164S | 0.0533 | – | 0.0534 | 0.035 | 0.0628 | 0.0762 | 0.0546 | – | 0.0429 | 0.0516 | – | 0.0498 | 0.0443 | – | 0.0562 | 0.0566 | –
5 | I164R | 0.0605 | 0.0529 | 0.0519 | 0.0604 | – | 0.056 | – | 0.0545 | – | 0.0485 | 0.0516 | 0.06 | 0.0494 | 0.0429 | – | 0.056 | –
6 | I164K | 0.0521 | – | 0.0571 | – | – | 0.0563 | – | – | – | – | – | – | 0.0516 | – | – | 0.0457 | –
7 | V210F | 0.0556 | – | 0.0621 | 0.0471 | 0.0614 | 0.0388 | 0.0728 | 0.0548 | – | – | 0.0633 | – | – | – | – | 0.0762 | –
8 | V210T | 0.0526 | – | 0.0646 | – | – | 0.0699 | – | 0.0426 | – | – | 0.0533 | – | – | – | 0.0832 | – | 0.0801
9 | E189W | 0.0774 | – | 0.0838 | 0.0721 | – | – | 0.0565 | 0.0711 | – | 0.0741 | 0.0717 | 0.041 | 0.0856 | – | – | 0.0632 | –
10 | E189P | 0.0681 | 0.048 | 0.0229 | 0.0927 | – | 0.0706 | – | – | 0.0653 | 0.0554 | – | 0.0623 | 0.0931 | 0.071 | – | 0.0603 | –
11 | N206K | 0.0819 | – | 0.0638 | – | – | – | 0.0517 | – | – | 0.0328 | – | – | – | – | – | 0.0435 | –
12 | G202E | 0.0634 | 0.0617 | 0.0626 | – | 0.0796 | 0.0485 | – | – | – | – | – | 0.0542 | 0.0649 | 0.0495 | – | 0.07 | –
13 | V217G | 0.0582 | 0.0472 | – | – | – | – | – | 0.0619 | – | – | – | 0.0458 | – | – | – | – | –
14 | K185Q | 0.0798 | 0.0627 | 0.074 | – | – | 0.0637 | – | 0.0722 | – | 0.0651 | – | 0.0632 | 0.0589 | – | 0.0735 | 0.0625 | –
15 | K185W | 0.0813 | 0.0711 | 0.0611 | 0.0674 | 0.061 | 0.0669 | 0.0615 | 0.0613 | 0.0575 | 0.0629 | 0.0539 | 0.0688 | 0.0415 | – | – | 0.0652 | 0.0496
16 | D161E | 0.0603 | 0.0713 | 0.0633 | 0.0304 | 0.0617 | 0.0576 | 0.0189 | 0.0744 | 0.053 | 0.0375 | 0.0548 | 0.0625 | 0.0646 | 0.0472 | – | 0.053 | –
17 | L191V | 0.108 | – | 0.0744 | 0.0579 | – | 0.0661 | 0.0642 | – | – | 0.0724 | 0.0644 | – | 0.0556 | 0.0592 | – | 0.0551 | –

Row | Variant | area with substrate DNLYFQS | area with substrate GNLYFQS | area with substrate HNLYFQS | area with substrate KNLYFQS | area with substrate LNLYFQS | area with substrate PNLYFQS | area with substrate SNLYFQS | area with substrate TNLYFQS | area with substrate VNLYFQS | area with substrate YNLYFQS | area with substrate FNLYFQS | area with substrate INLYFQS | area with substrate MNLYFQS | area with substrate NNLYFQS | area with substrate RNLYFQS | area with substrate WNLYFQS | area with substrate QNLYFQS
18 | N178T | 0.0804 | 0.0617 | 0.0552 | 0.0466 | 0.0596 | 0.0723 | – | 0.0773 | – | 0.0392 | 0.0497 | 0.064 | – | – | – | 0.0475 | –
19 | N178F | 0.204 | – | 0.103 | 0.0917 | – | 0.0929 | 0.102 | 0.133 | – | 0.0872 | 0.0995 | 0.132 | – | – | – | – | 0.0814
20 | F180R | 0.0515 | 0.0282 | 0.0181 | 0.0333 | 0.0508 | 0.0481 | – | 0.0514 | 0.0631 | 0.0426 | 0.0455 | – | 0.0289 | – | – | 0.0563 | 0.0562
21 | L190Q | 0.0433 | – | – | 0.0618 | 0.0699 | – | 0.0719 | – | – | – | – | 0.0659 | – | 0.0601 | – | 0.0759 | –
22 | L190E | 0.0645 | – | 0.055 | 0.0744 | 0.0545 | 0.0569 | – | – | 0.0654 | 0.0641 | 0.0503 | 0.0647 | 0.048 | 0.0663 | – | 0.0559 | 0.0566
23 | T181S | 0.071 | – | 0.0788 | – | – | 0.062 | 0.0741 | – | 0.06 | – | 0.0676 | – | 0.0692 | – | – | 0.0363 | –
24 | T181R | 0.0199 | – | – | 0.0656 | 0.0522 | 0.0618 | – | 0.0629 | 0.0453 | – | – | 0.045 | – | – | – | 0.0377 | –
25 | R204A | 0.0859 | – | – | 0.0648 | 0.0746 | 0.0734 | 0.0735 | 0.0662 | – | – | 0.0636 | 0.0807 | 0.0649 | – | – | 0.0643 | 0.0541
26 | S201V | 0.0744 | 0.0578 | 0.0607 | – | – | 0.0672 | 0.0612 | 0.0719 | 0.0736 | – | 0.0567 | – | 0.0494 | – | – | 0.0547 | –
27 | M219P | 0.062 | 0.057 | 0.0531 | – | 0.0684 | 0.0638 | – | 0.0562 | 0.0482 | 0.0516 | 0.054 | 0.032 | – | 0.0627 | – | 0.0564 | –
28 | M219H | 0.0538 | 0.0479 | 0.0615 | 0.0682 | 0.0671 | 0.0672 | – | 0.0586 | – | – | – | 0.0607 | 0.0616 | – | – | 0.0539 | 0.0506
29 | M219K | 0.0623 | 0.0511 | 0.0626 | 0.0508 | – | 0.0535 | 0.0523 | 0.055 | – | 0.0467 | – | 0.0831 | 0.057 | – | – | 0.0778 | –
30 | S171D | 0.0595 | 0.057 | 0.0613 | – | – | 0.0621 | 0.0562 | 0.035 | – | – | 0.0526 | 0.0556 | – | – | 0.0645 | – | 0.0586
31 | S171P | 0.0662 | – | 0.0582 | – | 0.0577 | 0.0643 | – | 0.0593 | – | 0.0394 | 0.0613 | 0.0523 | 0.067 | 0.0547 | – | 0.0603 | –
32 | S158R | 0.0534 | – | 0.036 | 0.0592 | 0.0476 | 0.0639 | – | – | – | – | 0.0417 | – | – | – | – | – | –
33 | S158W | 0.0592 | – | 0.0637 | 0.0528 | 0.056 | 0.0457 | 0.0428 | 0.0392 | 0.0536 | 0.0271 | 0.0449 | 0.0474 | 0.0565 | 0.0305 | – | 0.0455 | –
34 | S158M | 0.0449 | 0.0546 | 0.0744 | 0.0521 | 0.0619 | 0.0578 | – | 0.0549 | – | 0.0316 | – | 0.0439 | 0.0586 | – | 0.0494 | – | –

— the supplement of paper PMC12217912
